In the supplement of paper PMC10338343:
± gives the standard deviation. The entries are a selection whose mix differs from that of the whole data set.

These sequences were tested on MIWI (PIWIL1) piRISC loaded with piRNA #1 (30 nt) (assay: pre-steady-state target cleavage rate (min^-1); MIWI and MILI are mouse PIWI proteins and EfPiwi is from a freshwater sponge; tags in brackets are library labels; higher = faster piRNA-guided slicing of the target). Settings: guide: piRNA #1 5'p-UGAGGUAGUAGGUUGUAUAGUAUCCAGAGG; auxiliary factor: 500 nM mouse GTSF1.
Method in brief: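 A burst-and-steady-state fit was used to obtain the pre-steady-state cleavage rate. The input data were sequencing reads of uncleaved targets, normalised to depth and to weakly complementary targets, from a […] transcribed, DNA-blocked target RNA library mixed with 1 nM active affinity-purified piRISC holding one synthetic guide, with or without 500 nM GTSF1 partner protein, in HEPES–potassium acetate buffer at 33 °C for 0–8 or 0–960 min. Three trials were pooled and k3 was capped at 0.0001 min^-1.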
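Further: 1 nM active piRISC with 0.1 nM target library at 33 °C single turnover.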

| Sequence | pre-steady-state target cleavage rate |
| --- | --- |
| GGAGACCAUACUAUACAAGCUACUACCACA | 1.26 ± 0.055 |
| GGAGACCAUACUAUACAACCUACAUCCUCA | 0.614 ± 0.035 |
| GGAGACCUUACUAUACAACCUACUACCUCG [g2:g22:cont:t1G] | 1.17 ± 0.068 |
| GGAGAGCAUACUAUACAAGCUACUACCUCA | 0.883 ± 0.037 |
| GGUCUGCAUACUUUACAACCUACUACCUCA | 1.48 ± 0.12 |
| GCUCAGGAUACUAUACAACCUACUACGUCA | 0.866 ± 0.062 |
| GGAGUGGAUACUUUACAACCAACUACCUCA | 0.0858 ± 0.0074 |
| GGAGACCUAUGAUAAGAACCUACUACCUCA | < 0.0001 |
| GGACUGGAUACUAUACAACCUACAUACCUCA | 0.799 ± 0.079 |
| GGAGAGGAUACUAUACAACCUACAACCACA | 0.0616 ± 0.022 |
| GGAGACCUAUGUAUACAACCUACUUCCUCA | 0.00815 ± 0.0022 |
| GGAGUGGCUACUAUACAACCUACUACCUCA | 1.58 ± 0.076 |
| GGAGACCUUACUAUACAACCUACUAGCCUCA | 0.876 ± 0.078 |
| GCUCUGGAUACUAUACACCUACUACCUCA | 0.291 ± 0.032 |
| GGUCUGGAUACUAUACAACCAACUACCUGA | 0.056 ± 0.0095 |
| GGAGACGAUACUAUACUACCAACUACCUCA | 0.0376 ± 0.0067 |
| GCUCUGGAAACUAUAGAACCUACUACCUCA | 0.894 ± 0.055 |
| GGUCUGGAUACUAUUCAACGUACUACCUCA | 0.937 ± 0.067 |
| GGAGAGGAUACUAUACUACCUACUACCUGA | 0.412 ± 0.044 |
| GGUCUGGAUAGUAUACAACCUUCUACCUCA | 0.541 ± 0.032 |
| GGAGACCUAUCUCAUACAACCUACUACCUCA | 0.086 ± 0.018 |
| GGUCUGGAUACAAUACAACCUACUACCACA | 1.06 ± 0.093 |
| GGAGACCUAACAAUACAACCUACUACCUCA | 0.306 ± 0.095 |
| GGAGAGGAUAGUAUACAACCUACUACCUGA | 0.147 ± 0.025 |
